Test results: PubChem BioAssay AID938 (National Center for Advancing Translational Sciences (NCATS), 2007)
About 1,800 (2.5%) of roughly 73,000 compounds were called active. Inconclusive means that the source gave no clear call. Such entries were picked first, then a sample of the others. Calls come from the whole dose curve; as a rule, active = well fitted activation curve with a large enough effect; inconclusive = small, poorly fitted or top-dose-only effect; inactive = no such curve, though single readings can be large or run the other way. Potencies of inconclusive entries are left out as doubtful fits.

test: qHTS Assay for Agonists of the Thyroid Stimulating Hormone Receptor: Activators of Intracellular cAMP Concentrations in Parental HEK 293; conditions: parental HEK293 CNG cAMP sensor, membrane potential fluorescence; activation: at 57.1 µM (top of the series) unless noted; note: nearly all actives have a fitted effect of over 55% in size; for activation: % of control where 0% means no effect
Outline: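 Counterscreen for endogenous-receptor signalling: CNG-channel HEK 293 cells report cAMP rise by membrane depolarization. After 60 min dye equilibration with 100 uM RO 20-1724, compounds incubated 30 min before bottom-read fluorescence at 590 nm.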
Potency is the fitted concentration of half-maximal effect; tags give direction and shape of the fitted curve.

**Q.** With `Cc1cc(C)cc(NC(=O)Cn2ncn3c(cc4ccccc43)c2=O)c1` as the molecule, how does the Potency read?
**A.** inconclusive [activator, single point]

**Q.** With `N#CC1=C2SCN(c3ccccc3)CN2C(=O)CC1c1ccccc1Cl` (configuration not stated) as the molecule, how does the Potency read?
**A.** inactive

**Q.** Which Potency does the source give for `N#Cc1nc(-c2cccc3ccccc23)oc1N1CCCCC1` here?
**A.** inactive

**Q.** With `c1csc(-c2nn3c(Cn4nnc5ccccc54)nnc3s2)c1` as the molecule, how does the Potency read?
**A.** inconclusive [activator, single point]

**Q.** With `COc1ccc(COCC(O)CN2CCOCC2)cc1OC` (configuration not stated) as the molecule, how does the Potency read?
**A.** inconclusive [activator, single point]

**Q.** For `CCCN[C@@H](C)C(=O)Nc1c(C)csc1C(=O)OC`, which Potency is on record?
**A.** inactive

**Q.** Which Potency does the source give for `CSc1nsc(SC)c1NC(=O)OCc1ccccc1` here?
**A.** inconclusive [activator, single point]

**Q.** Which Potency does the source give for `CC(C)Sc1nnc([C@H](C)NC(=O)OC(C)(C)C)o1` here?
**A.** inconclusive [activator, single point]

**Q.** With `O=C(Nc1ccccc1)C1=C(O)CC(c2ccco2)CC1=Nc1ccccc1` (configuration not stated) as the molecule, how does the Potency read?
**A.** inactive

**Q.** For `COC(=O)c1ccc(CSc2nc3ccccc3c(=O)n2Cc2ccco2)o1`, which Potency is on record?
**A.** active: 7.94 µM

**Q.** For `O=C(c1cc(-c2ccco2)on1)N1CCc2ccccc2C1`, which Potency is on record?
**A.** inconclusive [activator, partial curve]

**Q.** With `C=CCN1C(=O)/C(=C2/Sc3ccccc3N2C)SC1=Nc1c(C)n[nH]c1C` as the molecule, how does the Potency read?
**A.** inactive

**Q.** With `COc1ccccc1CNc1ccnc(-c2ccc(C(=O)N(C)C)cc2)n1` as the molecule, how does the Potency read?
**A.** inactive

**Q.** For `CC(C)(C)n1nc2c(c1NC(=O)c1ccco1)CS(=O)C2` (configuration not stated), which Potency is on record?
**A.** inconclusive [activator, partial curve]

**Q.** Which Potency does the source give for `Cc1cc(C)c2cc(CN(CCO)C(c3nnnn3Cc3ccc(F)cc3)C(C)C)c(=O)[nH]c2c1` (configuration not stated) here?
**A.** inconclusive [activator, full curve, poor fit]

**Q.** With `COc1ccc(C(c2nnnn2Cc2ccccc2)N2CCN(c3ccccc3)CC2)cc1` (configuration not stated) as the molecule, how does the Potency read?
**A.** inconclusive [activator, single point]

**Q.** With `CCCn1c(C)nc2c(Nc3ccccc3)nc(C)nc21` as the molecule, how does the Potency read?
**A.** inactive

**Q.** For `O=c1c(-c2ccccc2)nc2cnc(Oc3ccccc3)nc2n1Cc1cccs1`, which Potency is on record?
**A.** inactive

**Q.** For `CC(C)C(c1nnnn1C1CCCC1)N1CCc2ccccc21` (configuration not stated), which Potency is on record?
**A.** inconclusive [activator, partial curve, poor fit]

**Q.** For `COc1ccc(C(c2nnnn2Cc2cccs2)N2CCN(c3ccccc3F)CC2)cc1OC` (configuration not stated), which Potency is on record?
**A.** inconclusive [activator, partial curve]

**Q.** With `O=C(CN1CCN(c2nc(-c3ccc(F)cc3)cs2)CC1)NCc1ccc2c(c1)OCO2` as the molecule, how does the Potency read?
**A.** inconclusive [activator, full curve]

**Q.** With `CCOC(=O)c1ccc(NC2c3ccccc3C(=O)N2c2cccnc2)cc1` (configuration not stated) as the molecule, how does the Potency read?
**A.** inconclusive [activator, partial curve]

**Q.** For `O=C(OCc1nnc(-c2ccccc2)o1)c1ccc2ccccc2n1`, which Potency is on record?
**A.** inconclusive [activator, single point]

**Q.** With `O=C(CSc1ccc2nnc(-c3ccncc3)n2n1)Nc1ccccc1F` as the molecule, how does the Potency read?
**A.** inconclusive [activator, single point]

**Q.** With `CC1(C)CC(=O)C(C(c2cccnc2)C2C(=O)CC(C)(C)CC2=O)C(=O)C1` as the molecule, how does the Potency read?
**A.** inconclusive [activator, single point]

**Q.** Which Potency does the source give for `O=C(CCN1C(=O)c2ccccc2C1=O)N1CCN(Cc2ccc(Cl)cc2Cl)CC1` here?
**A.** inconclusive [activator, single point]

**Q.** For `CCOC(=O)C1CCN(S(=O)(=O)c2cc(Cl)c(C)cc2OC)CC1`, which Potency is on record?
**A.** inconclusive [activator, single point]

**Q.** With `CN1C(=O)N(C)C(NC(=O)Nc2ccccc2)C1NC(=O)Nc1ccccc1` (configuration not stated) as the molecule, how does the Potency read?
**A.** inconclusive [activator, single point]

**Q.** Which Potency does the source give for `c1ccc(CCc2nn3c(Cn4cnc5ccccc54)nnc3s2)cc1` here?
**A.** inconclusive [activator, partial curve]

**Q.** Which Potency does the source give for `CC(C)C(c1nnnn1C1CCCC1)N(C)C1CCCCC1` (configuration not stated) here?
**A.** active: 20 µM

**Q.** With `O=C(c1cc2ccccc2cc1OCC(O)CN1CCCCC1)N1CCCCC1` (configuration not stated) as the molecule, how does the Potency read?
**A.** inconclusive [activator, partial curve]

**Q.** For `COc1ccccc1OCC(O)Cn1c(=N)n(CCN2CCCCC2)c2ccccc21` (configuration not stated), which Potency is on record?
**A.** inconclusive [activator, partial curve]

**Q.** With `CCCCn1nnnc1SCC(=O)Nc1sc2c(c1C#N)CCCC2` as the molecule, how does the Potency read?
**A.** inconclusive [activator, single point]

**Q.** With `COc1ccc(OCCSc2nnnn2C2CCCCC2)cc1` as the molecule, how does the Potency read?
**A.** inconclusive [activator, full curve]

**Q.** Which Potency does the source give for `Cc1ccc(-n2c(=O)[nH]c3c(C(N)=O)nc(CC(C)C)nc32)cc1` here?
**A.** inactive

**Q.** Which Potency does the source give for `CCCC(=O)C1=C(SCC)CC(C)(C)C(C(=O)OC)C1=O` (configuration not stated) here?
**A.** inconclusive [activator, partial curve, poor fit]

**Q.** Which Potency does the source give for `O=c1nc(-c2ccccc2)c2ccccc2[nH]1` here?
**A.** inconclusive [activator, single point]

**Q.** Which Potency does the source give for `CCOc1ccc(Cl)cc1/C=N/O` here?
**A.** inconclusive [activator, partial curve]

**Q.** With `CC(=O)NC1=C(OS(=O)(=O)c2ccc(C)cc2)CN(C)C1=O` as the molecule, how does the activation read?
**A.** inactive: -0.932% [at 11.4 µM]

**Q.** For `Cn1c(=O)n(C)c2cc(C(=O)Nc3ccc4c(c3)OCO4)ccc21`, which Potency is on record?
**A.** inconclusive [activator, partial curve]

**Q.** With `CN1CCC(CNC(=O)c2ccc(-n3c(=O)c(=O)[nH]c4ccccc43)cc2)CC1` as the molecule, how does the Potency read?
**A.** inactive

**Q.** For `Cc1ccc(Nc2nc(=O)c3cccnc3s2)cc1`, which Potency is on record?
**A.** inconclusive [activator, single point]

**Q.** With `CCCn1nnnc1SCC(=O)NCc1cccs1` as the molecule, how does the Potency read?
**A.** inactive

**Q.** For `Cc1cc(C)c(S(=O)(=O)N(C)CC(=O)N2CCCCC2)c(C)c1`, which Potency is on record?
**A.** inactive

**Q.** With `O=C(CN(c1ccc(F)cc1)S(=O)(=O)c1ccc2c(c1)OCCO2)N1CCOCC1` as the molecule, how does the Potency read?
**A.** inconclusive [activator, single point]

**Q.** With `O=C(NCCCc1ccccc1)c1ccccc1O` as the molecule, how does the Potency read?
**A.** inconclusive [activator, single point]

**Q.** With `Cc1sc2ncnc(SCC(=O)c3cccs3)c2c1C` as the molecule, how does the Potency read?
**A.** inconclusive [activator, partial curve]

**Q.** For `CCSCCCC(=O)O`, which Potency is on record?
**A.** inconclusive [activator, single point]

**Q.** Which Potency does the source give for `CCN1CCN(S(=O)(=O)c2ccc(OC)c(Br)c2)CC1` here?
**A.** inconclusive [activator, partial curve, poor fit]

**Q.** For `OC[C@H](CCc1c[nH]c2ccccc12)c1c[nH]c2ccccc12`, which activation is on record?
**A.** inactive: -11.5% [at 11.4 µM]

**Q.** Which Potency does the source give for `COc1ccc(C(=O)N2CCN(c3c(C)cccc3C)CC2)cc1OC` here?
**A.** inactive

**Q.** With `NC(=O)N[C@H]1NC(=O)NC1=O` as the molecule, how does the Potency read?
**A.** active: 12.6 µM

**Q.** For `Cc1noc(C)c1CSc1cc(C)c2ccccc2n1`, which Potency is on record?
**A.** inconclusive [activator, single point]

**Q.** With `COc1cccc(-c2cc(C(=O)Nc3cc(OC)c(OC)c(OC)c3)no2)c1` as the molecule, how does the Potency read?
**A.** inconclusive [activator, single point]

**Q.** For `NS(=O)(=O)c1ccc(NC(=O)CCc2ccccc2)cc1`, which Potency is on record?
**A.** inconclusive [activator, single point]

**Q.** For `CC1=C(C#N)c2nc(N)c(C#N)c(C)c2/C1=C\c1ccccc1`, which Potency is on record?
**A.** inactive

**Q.** Which Potency does the source give for `C=CCn1c(C)cc(C(=O)COC(=O)COc2ccccc2C#N)c1C` here?
**A.** inconclusive [activator, single point]

**Q.** With `O=C(O)C(Cc1cc2ccccc2[nH]1)N1C(=O)C2CC=C(Cl)CC2C1=O` (configuration not stated) as the molecule, how does the Potency read?
**A.** inconclusive [activator, single point]

**Q.** For `COc1ccc(-c2cc3ccccc3oc2=O)cc1NC(=O)c1ccc(Br)o1`, which Potency is on record?
**A.** inconclusive [activator, partial curve]

**Q.** For `Clc1ccccc1-c1ccc2ncnc(NCCN3CCOCC3)c2c1`, which Potency is on record?
**A.** inactive

**Q.** With `Cc1ccc(CNC(=O)Nc2cccs2)cc1` as the molecule, how does the Potency read?
**A.** inactive

**Q.** With `CCOc1ccc(C(C)=O)cc1CN1C(=O)NC2(CCCCC2C)C1=O` (configuration not stated) as the molecule, how does the Potency read?
**A.** inconclusive [activator, partial curve]

**Q.** With `O=S(=O)(NCC(c1cccnc1)N1CCOCC1)c1cccs1` (configuration not stated) as the molecule, how does the Potency read?
**A.** inconclusive [activator, single point]

**Q.** Which Potency does the source give for `CCCc1nnc(SCc2ccc(OC)cc2)n1N` here?
**A.** inconclusive [activator, full curve]

**Q.** Which Potency does the source give for `COc1ccccc1-c1ccc(NC2CCCCC2)nn1` here?
**A.** inconclusive [activator, partial curve]

**Q.** For `COc1cccc(-c2nnc(SCC(=O)N3CCCc4ccccc43)o2)c1`, which Potency is on record?
**A.** inconclusive [activator, partial curve]

**Q.** With `COc1ccc(-c2ccc(-c3nnn(CC(C)=O)n3)cc2)cc1` as the molecule, how does the Potency read?
**A.** inconclusive [activator, full curve, poor fit]

**Q.** Which Potency does the source give for `CC(c1ccccc1)N1C(=O)CC(Sc2ncccc2C(=O)O)C1=O` (configuration not stated) here?
**A.** inconclusive [activator, single point]

**Q.** Which Potency does the source give for `COc1ccccc1NC(=O)Cn1nnc(C(=O)Nc2ccccc2)c1N` here?
**A.** inactive

**Q.** For `CC1CCCN(Cc2nc3c(c(=O)n(C)c(=O)n3C)n2CCc2ccccc2)C1` (configuration not stated), which Potency is on record?
**A.** inconclusive [activator, full curve]

**Q.** Which Potency does the source give for `COCCNC(=O)C(c1ccc(C)o1)N(Cc1ccccc1)C(=O)Cn1nnc2ccccc21` (configuration not stated) here?
**A.** inconclusive [activator, single point]

**Q.** For `O=C(C1CC1)N1CCc2cc(Br)cc(S(=O)(=O)N3CCN(c4ccccn4)CC3)c21`, which Potency is on record?
**A.** active: 15.8 µM
